Source: the supplement of paper PMC11417369
The other results are listed elsewhere or left out.

The sequences below were run on PfAP2-HC AP2 domain (GST-tagged) (assay: gcPBM binding intensity (ln(normalized median fluorescence intensity)); higher = stronger DNA binding).
Outline: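 Plasmodium falciparum DNA-binding domains carrying a GST tag were expressed in E. coli and applied for 1 h, at about 25 μg on average, to an Agilent 4 × 180k array. The array held primer-extended double-stranded 36-bp intergenic genomic probes together with negative controls, and binding took place in 1× PBS with 1% milk, 0.2 mg/ml BSA, 0.5% salmon testes DNA and 0.03% Triton X-100. An Alexa488 anti-GST antibody detected bound protein, and the array was scanned at 488 nm. Binding intensity is taken as the highest Masliner-normalised natural-log median intensity across replicate spots of either probe orientation.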
For “CTTTTTACTTAATACACACACACACCCAAAAAAAAA [CACACA_site948]”, the “gcPBM binding intensity (ln)” value was 10.2. For “CATCAAAATGAAGCATGTACATAATATAAATAAATA [XGTACX_site4647]”, the “gcPBM binding intensity (ln)” value was 9.72. “AAAAAATACCAAAGGGGTACTTACACATAATACTTA [XGTACX_site2111]” was tested, and the “gcPBM binding intensity (ln)” value was 9.68. For “TATGTATATTGAGATTGTACTTGTAATATTAAACAT [XGTACX_site3878]”, the “gcPBM binding intensity (ln)” value was 9.53. With “TTGTATAAAATATGTAGTACAATAATATAACATTTT [XGTACX_site8607]” the “gcPBM binding intensity (ln)” value was 9.6. For “AATAATAAAAATATTGTGCACTTGTATATTTATTAT [GTGCAC_site9963]”, the “gcPBM binding intensity (ln)” value was 9.6. In the case of “TTTTTTTTTTTTTTTTTTTTTTTCTACCTATTTATT [CACACA_negctrl_site94]”, the “gcPBM binding intensity (ln)” value was 8.87. For “GGTATTTTCACATATAGTACACAAAAATAAAATAAA [XGTACX_site2139]”, the “gcPBM binding intensity (ln)” value was 9.54. For “AAGGAATAAAATTTAGAAGACAATTTTATTTCAGTA [XGTACX_negctrl_site331]”, the “gcPBM binding intensity (ln)” value was 9.47. With “ATATCAAATAATTTAGTGCACTTTTTTTTTTCTTTT [GTGCAC_site9629]” the “gcPBM binding intensity (ln)” value was 9.73. CTTTATATATATTGCGTGCACATTTTTTTTTTTTTT was tested, and the “gcPBM binding intensity (ln)” value was 10. For “GAAATAATAAAATCGACACACAAAAAAAAAAAAAAA [CACACA_site3476]”, the “gcPBM binding intensity (ln)” value was 9.59. With “CTATTTAAAATTTGAACACACATTATTTATTTTAAA [CACACA_site3114]” the “gcPBM binding intensity (ln)” value was 9.49. In the case of “AATAAATACAAAAATGTACACACATATATATATTTT [CACACA_site9167]”, the “gcPBM binding intensity (ln)” value was 9.85. For “TCAATATATATAAGAAGTACATGTGAATGAAAAAAA [XGTACX_site1674]”, the “gcPBM binding intensity (ln)” value was 9.69. With “TTCTGTATACGGTGTGCACACAATTAAAAAAAAAAA [CACACA_site1416]” the “gcPBM binding intensity (ln)” value was 10.1. For “AACATATAAAAATATGCACACACAGGAATACAAACA [CACACA_site8127]”, the “gcPBM binding intensity (ln)” value was 11.2. With “TTAAATAACCTCAAGGATAAGAAAAAATTAAAAATT [CACACA_negctrl_site1336]” the “gcPBM binding intensity (ln)” value was 9.36. “GTAAATATATATATATATATATATATATATATATAT [GTGCAC_negctrl_site239]” was tested, and the “gcPBM binding intensity (ln)” value was 9.73. With “GGATTTTACCATAGCACACATATATGAATATTTTTC [CACACA_site1814]” the “gcPBM binding intensity (ln)” value was 9.78. “TTTATATACTATCAACGTACAAAAGTAATAAAAATA [XGTACX_site4343]” was tested, and the “gcPBM binding intensity (ln)” value was 9.61. For CATTTTATTTTCTTTGTGCACAAAAATATTTTTTCT, the “gcPBM binding intensity (ln)” value was 9.71. “TTGTAACAAAAGTACACACACATTTCTATAAATTTT [CACACA_site2772]” was tested, and the “gcPBM binding intensity (ln)” value was 10. For “AAAGTTATGATATATACACACATATAAATATTAAAT [CACACA_site6361]”, the “gcPBM binding intensity (ln)” value was 9.98. “TGTTCTAATTTTAATTGTACATATATACATATATAT [XGTACX_site7290]” was tested, and the “gcPBM binding intensity (ln)” value was 9.92. In the case of “TTTAAAAAAAAAAAAAATTTTTTTTTTTTTTTTTTA [CACACA_negctrl_site1415]”, the “gcPBM binding intensity (ln)” value was 9.07. In the case of “CATATATATATATGAACACACAAAAAGAATATTTCC [CACACA_site1493]”, the “gcPBM binding intensity (ln)” value was 10.1. With “TCTATACCTATTCTTACACACATATGTATTTATATA [CACACA_site4475]” the “gcPBM binding intensity (ln)” value was 10.2. For “AATTATATTTAGTATATGCACACTTTATGTTTGTTA [CACACA_site2025]”, the “gcPBM binding intensity (ln)” value was 9.8. In the case of “GTAGAAAGAAAAATTAGTACTTAAATATTATAAAAA [XGTACX_site8458]”, the “gcPBM binding intensity (ln)” value was 9.52. “TTCTATGCATTTATAGTGCATGTAAAATATAAGATA [GTGCAC_site9466]” was tested, and the “gcPBM binding intensity (ln)” value was 9.26. “TTTTAAAAAATATAATAATATAAATATTTTATACGT [TGCATGCA_negctrl_site252]” was tested, and the “gcPBM binding intensity (ln)” value was 9.33. “GACTTTTTCATTTTTAGTACACATATATATTTCCCT [XGTACX_site3511]” was tested, and the “gcPBM binding intensity (ln)” value was 10.1. “AAAAAAAAAAAACATACACACACACTAATATTTATA [CACACA_site8038]” was tested, and the “gcPBM binding intensity (ln)” value was 10.9. “TTAAAAAATCACAACACACACACACCCAAAAAAAAA [CACACA_site1445]” was tested, and the “gcPBM binding intensity (ln)” value was 10.6. In the case of “ATATATTTTTAATATGCACACAAGAATACATTCACA [CACACA_site914]”, the “gcPBM binding intensity (ln)” value was 9.87. For “TTTATCCAATAATCTGGTACACAATAATCATTCATG [XGTACX_site6192]”, the “gcPBM binding intensity (ln)” value was 9.53. With “TTTTTTTACTTAATAGTTCAACATATATCTCAATGT [CACACA_negctrl_site620]” the “gcPBM binding intensity (ln)” value was 9.66. For “ATTCATATATACTTCACACACATTTTATCATTCAAA [CACACA_site2468]”, the “gcPBM binding intensity (ln)” value was 10.2. For “TTTCTATTTATTTCAAGTACTAAAAATATATATAAC [XGTACX_site8203]”, the “gcPBM binding intensity (ln)” value was 9.44. With “TTTTTGTGCATTGATTGTACTTTCTAGGATTATTAA [XGTACX_site7070]” the “gcPBM binding intensity (ln)” value was 9.59. “TTTTTTCATTATATATAGTATGCAAGTCAAATTAAT [GTGCAC_negctrl_site207]” was tested, and the “gcPBM binding intensity (ln)” value was 9.43. For “TATATATATATATAAAGTACATATAATATATATTTG [XGTACX_site5412]”, the “gcPBM binding intensity (ln)” value was 9.59. TTTTTTTTTTTGATGGTGCAATATATTAAATAGAAA was tested, and the “gcPBM binding intensity (ln)” value was 9.21.
